System: influenza A virus (H1N1) PR/8/34 (PR8) strain
Assay: Influenza A PR8 challenge of C57BL/6 mice
Assay type: in vivo
Conditions: 2 μg IN 2 days prior, day 3

CCCCCCCCCCCCCC[C@@H](O)[C@@H](O)[C@H](CO[C@H]1O[C@H](CO)[C@H](O)[C@H](O)[C@H]1O)NC(=O)CCCCCCCCCCc1ccc(F)cc1 [7DW8-5]
infectious virus in lung tissues: reduced the amount of infectious virus
